Hit rate of the full screen: of about 410,000 compounds, about 6,400 (1.6%) were called active. The shares of active, inactive and inconclusive entries below differ from those in the screen. Calls follow the shape of the dose curve; as a rule, active = well fitted inhibition curve with a large enough effect; inconclusive = small, poorly fitted or top-dose-only effect; inactive = no such curve, though single readings can be large or run the other way. Potencies of inconclusive entries are left out as doubtful fits.
What follows are compounds tested against Glucagon-like peptide 1 receptor (Homo sapiens) (UniProt P43220) (assay: qHTS of GLP-1 Receptor Inverse Agonists (Inhibition Mode)). Conditions: HEK293 GLP-1R CRE-luciferase, luminescence, 24 h, GLP-1R form is constitutively active; activity change, negative = inhibition: at 38.3 µM (top of the series) unless noted.
Chain of UniProt P43220 (P43220 whole entry, looked up): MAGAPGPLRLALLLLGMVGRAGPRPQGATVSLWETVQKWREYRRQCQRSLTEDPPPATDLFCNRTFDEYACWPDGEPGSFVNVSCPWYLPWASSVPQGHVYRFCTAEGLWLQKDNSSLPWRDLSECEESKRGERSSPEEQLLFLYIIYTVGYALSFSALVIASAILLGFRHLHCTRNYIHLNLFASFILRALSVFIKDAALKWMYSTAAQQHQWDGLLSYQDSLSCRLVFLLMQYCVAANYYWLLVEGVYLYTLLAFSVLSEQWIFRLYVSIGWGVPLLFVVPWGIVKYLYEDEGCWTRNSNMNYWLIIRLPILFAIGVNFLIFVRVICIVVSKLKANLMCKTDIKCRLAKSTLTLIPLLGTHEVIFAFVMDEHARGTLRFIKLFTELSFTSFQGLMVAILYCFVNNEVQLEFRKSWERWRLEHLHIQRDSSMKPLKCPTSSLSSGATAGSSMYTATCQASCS
Outline: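 Seeding at 200 cells/uL, 12 h culture, 24 hr compound treatment, then luciferase reagent and a luminescence read; cells are HEK293 stably expressing a constitutively active GLP-1R plus cAMP-responsive luciferase.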
In the case of `Cc1ccc(C(=O)NC(=S)NCc2ccco2)cc1`, the “activity change, negative = inhibition” value is reported as inactive: -26.2%. With `Cc1cccc(N2CCN(C(=O)CN3CCOc4ccccc43)CC2C)c1` (stereo unspecified) the Potency was inconclusive [inhibitor, single point]. In the case of `CCOC(=O)c1ccc(NC(=O)c2ccc(NC(=O)c3ccccc3)cc2)cc1`, the “activity change, negative = inhibition” value is reported as inactive: 11%. With `Cc1cccc(-n2c(CCc3ccccc3)nnc2SCC(=O)c2ccccc2)c1` the Potency was active: 5.01 µM. In the case of `COc1ccccc1C(=O)N(Cc1nc(-c2cccc(C)c2)no1)C(C)C`, the Potency is reported as inconclusive [inhibitor, single point]. For `CCCc1nn(-c2cc(Cl)ccc2OC)c2c1C(=O)CCC2`, the Potency was inconclusive [inhibitor, single point]. `CCOc1ccccc1NC(=S)NCCc1ccc(F)cc1` was tested, and the Potency was inconclusive [inhibitor, single point]. In the case of `Cc1cc(/C=C2/C(=O)NN(c3ccccc3)C2=O)c(C)n1-c1cccc(O)c1`, the Potency is reported as inconclusive [inhibitor, full curve, poor fit]. In the case of `CCOC(=O)N1CCN(C(=O)CSc2nc(-c3cccc(C)c3)ns2)CC1`, the Potency is reported as inconclusive [inhibitor, single point]. With `CN(C)CCOc1nc(-c2ccccc2)nc2c1oc1ccccc12` the Potency was inconclusive [inhibitor, partial curve, poor fit]. `COc1cccc(C2NC(=S)NC3=C2CCc2ccccc23)c1` (stereo unspecified) was tested, and the Potency was inconclusive [inhibitor, single point]. `COc1cc(/C=C/C(=O)c2ccc3c(c2)OCCO3)cc(OC)c1OC` was tested, and the Potency was inconclusive [inhibitor, single point]. In the case of `CN1CCCC1CCNS(=O)(=O)c1ccc(Br)cc1` (stereo unspecified), the Potency is reported as inconclusive [inhibitor, partial curve, poor fit]. In the case of `CC1CN(C(=O)CCC(=O)NCc2cccc(Cl)c2)c2ccccc2S1` (stereo unspecified), the Potency is reported as inconclusive [inhibitor, partial curve, poor fit]. With `Cn1nnc2cc(NC(=O)Nc3ccccc3F)ccc21` the Potency was inconclusive [inhibitor, partial curve, poor fit]. `CNc1nc(Cl)c(SC)c(NCc2ccc(F)cc2)n1` was tested, and the “activity change, negative = inhibition” value was inactive: -8.55%. In the case of `CN(Cc1ccc(Cl)cc1)C(C(=O)NC1CCCCC1)c1cc2ccccc2o1` (stereo unspecified), the Potency is reported as inconclusive [inhibitor, partial curve, poor fit]. In the case of `CCOC(=O)C1=C(O)C(=O)N(Cc2ccc(C(C)(C)C)cc2)CC1`, the Potency is reported as inconclusive [inhibitor, single point]. `COc1ccc(C2=C(Nc3ccc(Br)c(C)c3)c3ccccc3C2=O)cc1` was tested, and the Potency was inconclusive [inhibitor, partial curve, poor fit]. `COC(c1ccccc1)c1nnc(CCC(=O)N(C)CCOc2ccccc2)o1` (stereo unspecified) was tested, and the Potency was inconclusive [inhibitor, single point]. `Cc1ccccc1CN1C[C@H]2CON(C)[C@H]2C[C@H]1c1cccc(Br)c1` was tested, and the Potency was inconclusive [inhibitor, partial curve, poor fit]. With `C[C@@H]1CN([C@@H](C)CO)S(=O)(=O)c2ccc(-c3ccc(C(=O)N(C)C)cc3)cc2O[C@@H]1CN(C)Cc1ccccc1C(=O)O` the “activity change, negative = inhibition” value was inactive: 3.03%. With `COc1ccc2[nH]c(C)c(CCNC(=S)Nc3ccc(C)cc3)c2c1` the Potency was inconclusive [inhibitor, partial curve]. `Cc1ccc(NC(=O)CN2C(=O)CCc3ccccc32)cc1C` was tested, and the Potency was inconclusive [inhibitor, single point]. For `CC(Oc1ccc(Cl)cc1Cl)C(=O)Nc1cccnc1` (stereo unspecified), the Potency was inconclusive [inhibitor, single point]. `Cc1onc(-c2c(F)cccc2Cl)c1C(=O)c1ccccc1` was tested, and the Potency was inconclusive [inhibitor, partial curve, poor fit]. With `C=CCN1C=CC(=C/C=C(/C#N)C(=O)OCC)C=C1` the Potency was inconclusive [inhibitor, single point]. For `COc1ccc(CCNC(=S)Nc2ccccc2)cc1`, the Potency was inconclusive [inhibitor, single point]. For `Cc1ccc(NC(=O)c2cccc(S(=O)(=O)N(C)c3ccccc3)c2)cc1S(=O)(=O)N1CCOCC1`, the Potency was inconclusive [inhibitor, partial curve, poor fit]. With `CCOc1ccc(CN(C)CC(=O)NCc2ccccc2)cc1` the Potency was inconclusive [inhibitor, single point]. With `N#Cc1nc(-c2ccc(OCc3ccc(Cl)cc3)cc2)oc1NCc1cccnc1` the “activity change, negative = inhibition” value was inactive: -11.6%. `CCOc1ccc(CNC(=S)N/N=C/c2ccncc2)cc1` was tested, and the Potency was inconclusive [inhibitor, single point]. `Cc1ccc(S(=O)(=O)N(C)c2ccc(OCC(=O)Nc3nnc(C4CC4)s3)cc2)cc1` was tested, and the Potency was inconclusive [inhibitor, partial curve]. `COc1cccc(C(NC(C)=O)c2ccc3cccnc3c2O)c1` (stereo unspecified) was tested, and the Potency was inconclusive [inhibitor, full curve, poor fit]. With `CCOc1ccc(NC(=S)Nc2cc(-c3ccccc3)[nH]n2)cc1` the Potency was inconclusive [inhibitor, partial curve, poor fit]. For `C/C(=N/NC(=O)c1ccoc1C)C12CC3CC(CC(C3)C1)C2`, the Potency was inconclusive [inhibitor, partial curve, poor fit]. For `CCOc1cc2nc(-c3ccc(OC)c(OC)c3)nc(N3CCOCC3)c2cc1OC`, the Potency was inconclusive [inhibitor, single point]. With `COc1cccc(-c2nn(-c3ccccc3)cc2/C=C(\C#N)C(=O)NCCCn2ccnc2)c1` the Potency was inconclusive [inhibitor, single point]. With `Cc1ccc(-n2c(N)c(C(=O)NCc3ccco3)sc2=S)cc1` the Potency was inconclusive [inhibitor, single point]. For `COc1ccc(Nc2nc(-c3cccs3)cs2)c(OC)c1`, the “activity change, negative = inhibition” value was inactive: -1.51%. `Cc1cc(C)c2c(CN3CCC(C)CC3)cc(=O)oc2c1` was tested, and the Potency was inconclusive [inhibitor, partial curve, poor fit].

From PubChem BioAssay AID624417 (National Center for Advancing Translational Sciences (NCATS), 2012)
% is scaled to controls: 0 for no effect and ±100 for the full control effect; potency is read from the fitted curve at half-maximal effect; tags tell the direction and shape of the fitted curve.
Also: nearly all actives have a fitted effect of over 55% in size.
